Among all 300,000 compounds or so, about 1,200 (0.4%) were called active. Inconclusive means that the source gave no clear call. Such entries were picked first, then a sample of the others. Calls follow the shape of the dose curve; as a rule, active = well fitted inhibition curve with a large enough effect; inconclusive = small, poorly fitted or top-dose-only effect, or another doubt; inactive = no such curve, though single readings can be large or run the other way. Potencies of inconclusive entries are doubtful fits and often do not repeat.
Each molecule was assayed against Lysosomal alpha-glucosidase (Homo sapiens) (UniProt P10253) (assay: qHTS Assay for Inhibitors and Activators of Human alpha-Glucosidase Cleavage of Glycogen). Details: recombinant GAA, glycogen substrate, Amplex Red glucose oxidase fluorescence; activity change, negative = inhibition: at 76.4 µM (top of the series) unless noted.
Method in brief: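 qHTS, 1536-well; enzyme 4 nM final; cpd up to 77 uM; substrate bovine liver glycogen 30 ug; 50 mM citrate/phosphate pH 5.0, 0.01% Tween-20; 37 C, 40 min; Amplex Red detection 45 min RT; Hill fit → AC50.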
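For activity change, negative = inhibition in this document: 0% = full enzyme reaction and -100% = no-enzyme basal signal.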
Potency is read from the fitted curve at half-maximal effect.

Q: For `COc1ccc(N(C(=O)CSCC(=O)Nc2cc(C)on2)C(C(=O)NC2CCCCC2)c2ccc(O)c(O)c2)cc1` (stereo not given), which Potency is on record?
A: Its Potency is inconclusive: 10 µM [inhibitor, full curve].

Q: How did the Potency turn out when `Cc1ccc(-c2c(C(=O)NC(C)C)oc(=O)c3ccccc23)cc1` was run?
A: Its Potency is inconclusive: 39.5 µM [inhibitor, single point].

Q: How did the “activity change, negative = inhibition” value turn out when `O=C(NNC(=S)NC(=O)c1ccccc1[N+](=O)[O-])c1ccccc1O` was run?
A: The value was inactive: -10.6%.

Q: Which Potency does the source give for `Oc1ccc(C2=NN(c3ccccc3)C(c3ccc(F)cc3)C2)cc1` (stereo not given) here?
A: The Potency was inconclusive: 50.1 µM [inhibitor, single point].

Q: Which Potency does the source give for `O=C1CC(N(O)c2ccccc2)C(=O)N1c1cc(Cl)cc(Cl)c1` (stereo not given) here?
A: Its Potency is active: 22.2 µM.

Q: With `Oc1ccc(/C=N/Nc2cccc3cccnc23)c(O)c1` as the molecule, how does the Potency read?
A: Its Potency is active: 25.1 µM.

Q: With `O=C(c1ccc2c(c1)N(Cc1ccccc1F)C(=O)c1ccccc1S2=O)N1CCC(Cc2ccccc2)CC1` (stereo not given) as the molecule, how does the “activity change, negative = inhibition” value read?
A: Its value is inactive: 4.67% [at 76.3 µM].

Q: For `COc1ccc(OCc2ccc(-c3nc(C#N)c(NCc4ccc(F)cc4)o3)o2)cc1`, which Potency is on record?
A: The Potency was inconclusive: 28.2 µM [inhibitor, partial curve].

Q: Which Potency does the source give for `Cc1ccc2cc(C)c(SCC(=O)NCC3CCCO3)nc2c1` (stereo not given) here?
A: The Potency was inconclusive: 11.2 µM [inhibitor, single point].

Q: How did the Potency turn out when `CC(C)N1C(=O)CC(Nc2ccc(N3CCOCC3)cc2)C1=O` (stereo not given) was run?
A: The Potency was active: 25.1 µM.

Q: Which Potency does the source give for `Cc1ccc(N/C=C(/C#N)c2ccsc2)cc1` here?
A: Its Potency is inconclusive: 28 µM [inhibitor, single point].

Q: `COc1cccc(CNC(=O)CN(c2ccc(C)cc2)S(=O)(=O)N(C)C)c1OC` was tested. Which Potency did it give?
A: Its Potency is inconclusive: 7.94 µM [inhibitor, partial curve].

Q: Which Potency does the source give for `O=C(CSc1nnnn1-c1ccc(F)cc1)c1ccc(O)c(O)c1` here?
A: The Potency was inconclusive: 3.14 µM [inhibitor, partial curve].

Q: `N#CC1=C(N)N(c2ccc(Cl)cc2)C2=C(C(=O)CCC2)C1c1cc(CN2CCOCC2)cs1` (stereo not given) was tested. Which Potency did it give?
A: The Potency was inconclusive: 35.5 µM [inhibitor, partial curve].

Q: How did the Potency turn out when `CN(CCCNC(=O)CCC(=O)N1CCOc2ccccc21)Cc1ccccc1` was run?
A: Its Potency is inconclusive: 50.1 µM [inhibitor, single point].

Q: With `Nc1nnc(SCC(=O)Nc2cc(S(=O)(=O)N3CCOCC3)ccc2Cl)s1` as the molecule, how does the Potency read?
A: The Potency was inconclusive: 35.2 µM [inhibitor, single point].

Q: How did the Potency turn out when `S=c1[nH]nc(Nc2cccc(Cl)c2)s1` was run?
A: Its Potency is inconclusive: 39.8 µM [inhibitor, single point].

Q: With `COc1cc(-c2noc(-c3cc4cccc(C)c4oc3=O)n2)cc(OC)c1OC` as the molecule, how does the Potency read?
A: The Potency was inconclusive: 11.2 µM [inhibitor, single point].

Q: `CC(C)C(=O)c1ccc(O)c(O)c1` was tested. Which Potency did it give?
A: The Potency was active: 7.08 µM.

Q: With `CCN(CC)c1ccc(/C=N/N2CCN(Cc3cccc4ccccc34)CC2)c(O)c1` as the molecule, how does the Potency read?
A: Its Potency is inconclusive: 22.2 µM [inhibitor, partial curve].

Q: `C=CCn1c(=O)c2c3c(sc2n2c(Nc4ccc(OC)cc4)nnc12)CCCC3` was tested. Which Potency did it give?
A: Its Potency is inconclusive: 25.1 µM [inhibitor, partial curve].

Q: `CC(C)CCC(CC(C)O)C(=O)NNC(=S)Nc1ccccc1` (stereo not given) was tested. Which Potency did it give?
A: Its Potency is inconclusive: 35.5 µM [inhibitor, single point].

Q: Which Potency does the source give for `O=C(COc1ccccc1)NC(NC(=S)Nc1ccccc1O)C(Cl)(Cl)Cl` (stereo not given) here?
A: Its Potency is inconclusive: 35.5 µM [inhibitor, partial curve].

Q: With `Cc1cc(C(=O)NNC(=S)Nc2ccccc2)nn1C` as the molecule, how does the Potency read?
A: Its Potency is active: 3.55 µM.

Q: Which Potency does the source give for `c1ccc(Nc2c(-c3ccccc3)nc3ncccn23)cc1` here?
A: Its Potency is inconclusive: 5.01 µM [inhibitor, full curve].

Q: For `COc1ccc(NCC(=O)Nc2ccc(C#N)cc2)cc1Cl`, which Potency is on record?
A: Its Potency is inconclusive: 17.6 µM [activator, partial curve].

Q: For `CC(=O)Oc1ccccc1N(C(C)=O)S(=O)(=O)c1ccc2ccccc2c1`, which “activity change, negative = inhibition” value is on record?
A: The value was inactive: -3.85%.

Q: For `Cc1ccc(S(=O)(=O)NCc2nc3ccccc3[nH]2)cc1`, which Potency is on record?
A: The Potency was inconclusive: 89.1 µM [inhibitor, partial curve, poor fit].

Q: Which “activity change, negative = inhibition” value does the source give for `Oc1ccccc1-c1nc2c3ccccc3c3ccccc3c2[nH]1` here?
A: Its value is inactive: 1.57%.

Q: Which Potency does the source give for `CCn1c(C(=O)N2CCc3ccccc3C2)cc2oc3ccccc3c21` here?
A: Its Potency is inconclusive: 39.5 µM [inhibitor, single point].

Q: With `CN1c2ccccc2C(C)(C)[C@]12C=Cc1cc(O)ccc1O2` as the molecule, how does the Potency read?
A: Its Potency is active: 7.88 µM.

Q: How did the Potency turn out when `CC(C)(C)NC(=S)Nc1ccc(Nc2ccccc2)cc1` was run?
A: Its Potency is active: 14 µM.

Q: `Cc1[nH]n(-c2ccccc2)c(=O)c1/C=N/N(C)c1ccccc1` was tested. Which Potency did it give?
A: Its Potency is inconclusive: 14 µM [inhibitor, partial curve].

Q: `CCCCCCn1c(-c2cccs2)n[nH]c1=S` was tested. Which Potency did it give?
A: The Potency was inconclusive: 25.1 µM [inhibitor, partial curve].

Q: With `Oc1ccc(NCc2ccccc2OCc2ccccc2Cl)cc1` as the molecule, how does the Potency read?
A: Its Potency is inconclusive: 50.1 µM [activator, single point].

Q: Which Potency does the source give for `CC1=NNC(=O)C1CCC(=O)N/N=C/C=C/c1ccccc1` (stereo not given) here?
A: Its Potency is inconclusive: 35.5 µM [inhibitor, single point].

Q: How did the Potency turn out when `CCCCCCOc1ccc(/C(N)=N/O)cc1` was run?
A: The Potency was inconclusive: 22.2 µM [inhibitor, single point].

Q: Which Potency does the source give for `O=C(NNc1c2ccccc2nc2ccccc12)c1ccc(O)cc1O` here?
A: The Potency was active: 28.2 µM.

Q: For `O=C(CN1CCc2ccccc21)NC(=O)NCc1ccccc1`, which Potency is on record?
A: The Potency was inconclusive: 39.8 µM [activator, single point].

Q: For `C=CCNC(=S)NNC(=O)c1ccc2c(c1)OCO2`, which Potency is on record?
A: The Potency was inconclusive: 17.6 µM [inhibitor, partial curve].

Q: `COc1ccc(C(Nc2ccccn2)c2c(NC(=O)c3ccco3)sc(C)c2C)cc1` (stereo not given) was tested. Which Potency did it give?
A: The Potency was inconclusive: 35.5 µM [inhibitor, single point].

Q: For `CCN(CC)Cc1cc(Nc2ccnc3cc(Cl)ccc23)ccc1O`, which Potency is on record?
A: Its Potency is inconclusive: 17.8 µM [inhibitor, partial curve].

Q: `Cc1onc(-c2ccccc2)c1C(N)=O` was tested. Which Potency did it give?
A: Its Potency is inconclusive: 15.8 µM [inhibitor, partial curve, poor fit].

Q: With `O=C(NNC(=O)c1ccccc1[N+](=O)[O-])c1cccs1` as the molecule, how does the Potency read?
A: The Potency was inconclusive: 7.94 µM [inhibitor, single point].

Q: How did the Potency turn out when `NNC(=O)c1ccc(N2CCc3ccccc32)c([N+](=O)[O-])c1` was run?
A: The Potency was inconclusive: 35.5 µM [inhibitor, partial curve].

Q: Which “activity change, negative = inhibition” value does the source give for `Cc1cc(Nc2cccc(C(F)(F)F)c2)nc2ccc(NC(=O)c3cccnc3)cc12` here?
A: Its value is inactive: -12.5% [at 76.3 µM].

Q: Which Potency does the source give for `Cc1cc(Nc2c(C)n(C)n(-c3ccccc3)c2=O)n2c(nc3ccccc32)c1C#N` here?
A: Its Potency is active: 14 µM.

Q: With `CCOc1ccc(C2C(C(N)=O)=C(C)Nc3nc(-c4cccc(Cl)c4)nn32)cc1OC` (stereo not given) as the molecule, how does the Potency read?
A: The Potency was inconclusive: 28.2 µM [inhibitor, single point].

Q: With `COc1ccc2[nH]c(CN3CCN(CC=C(C)C)C(CCO)C3)c(C)c2c1` (stereo not given) as the molecule, how does the Potency read?
A: The Potency was inconclusive: 28.2 µM [inhibitor, partial curve].

Q: How did the Potency turn out when `Cc1ccc(/C=N/c2sc3c(c2C#N)CCC3)o1` was run?
A: Its Potency is active: 22.2 µM.

Q: Which Potency does the source give for `Cc1ccc(O)c(NC(=O)CCSc2nc(-c3ccco3)cc(C(F)(F)F)n2)c1` here?
A: Its Potency is inconclusive: 3.55 µM [inhibitor, full curve].

Q: How did the Potency turn out when `Cc1ccc(C)c(NCC(=O)NNC(=S)Nc2ccccc2)c1` was run?
A: The Potency was inconclusive: 3.55 µM [inhibitor, full curve].

Q: For `O=C(O)c1ncn(Cc2ccc(Br)cc2)c1C(=O)O`, which activity change, negative = inhibition is on record?
A: The activity change, negative = inhibition was inconclusive: 31.3% [activator].

Q: With `COc1cccc2c1OC1(CCN(C(C)C)CC1)N1N=C(c3cccnc3)CC21` (stereo not given) as the molecule, how does the Potency read?
A: Its Potency is inconclusive: 22.4 µM [inhibitor, partial curve].

Q: Which Potency does the source give for `COc1ccc(CCNC(=O)C(=O)NCC2OCCN2S(=O)(=O)c2ccc(OC)c(OC)c2)cc1` (stereo not given) here?
A: Its Potency is inconclusive: 44.7 µM [inhibitor, single point].

Q: With `CCC(Oc1ccc(C)cc1)C(=O)Nc1ccc(S(=O)(=O)Nc2nccs2)cc1` (stereo not given) as the molecule, how does the “activity change, negative = inhibition” value read?
A: The value was inactive: 5.66%.

Q: `CC(C)c1ccc(NC(=S)NNC(=O)C2CC2)cc1` was tested. Which Potency did it give?
A: Its Potency is inconclusive: 12.6 µM [inhibitor, partial curve].

Q: `Cc1ccc(NC(=S)NNS(=O)(=O)c2ccc3ccccc3c2)cc1Cl` was tested. Which Potency did it give?
A: The Potency was inconclusive: 31.6 µM [inhibitor, partial curve, poor fit].

Q: Which Potency does the source give for `CCSc1ncc(/C=N/Nc2ccc(Cl)cc2)n1C` here?
A: Its Potency is inconclusive: 31.6 µM [inhibitor, single point].

Q: `COc1ccc(N/C=C\C(=O)c2ccc(C)cc2)cc1OC` was tested. Which Potency did it give?
A: Its Potency is inconclusive: 10 µM [inhibitor, partial curve].

Q: With `COc1cc2c(cc1NC(=S)Nc1ccccc1C)oc1ccccc12` as the molecule, how does the Potency read?
A: Its Potency is inconclusive: 5.58 µM [inhibitor, full curve].

Q: How did the Potency turn out when `COC(=O)C1CSc2[nH]c(=O)sc2C1c1ccc(OC)c(OC)c1` (stereo not given) was run?
A: Its Potency is active: 17.8 µM.

Q: `CCOC(=O)c1cccc(NC(=O)Nc2ccc3c(c2)N(C)C(=O)c2ccccc2S3)c1` was tested. Which “activity change, negative = inhibition” value did it give?
A: Its value is inactive: 6.5% [at 76.3 µM].

Q: For `Nc1nnc(SCC(=O)c2ccc([N+](=O)[O-])cc2)s1`, which Potency is on record?
A: Its Potency is inconclusive: 3.95 µM [inhibitor, partial curve].

Q: For `O=C(O)Cc1sc(Nc2ccc(C(=O)O)cc2)nc1-c1ccccc1`, which Potency is on record?
A: The Potency was inconclusive: 39.8 µM [inhibitor, single point].

Q: How did the Potency turn out when `Cc1ccc(O)c(NC(=O)CN(C)S(=O)(=O)c2ccc(Cl)cc2)c1` was run?
A: The Potency was inconclusive: 12.6 µM [inhibitor, partial curve].

Q: `CSC1=N/C(=C\c2ccccc2Cl)C(=O)N1N(C)C` was tested. Which “activity change, negative = inhibition” value did it give?
A: Its value is inactive: 6.47%.

Q: With `COc1cc(-c2nc3ccc(Cl)cn3c2Nc2ccc3c(c2)OCO3)ccc1O` as the molecule, how does the Potency read?
A: Its Potency is inconclusive: 6.31 µM [inhibitor, full curve].

Q: For `O=C(CSC1=NS(=O)(=O)c2ccccc21)Nc1ccccc1`, which “activity change, negative = inhibition” value is on record?
A: Its value is inactive: 7.92%.

Q: Which Potency does the source give for `CC(NC(=O)c1ccc(CSc2nc3ccncc3n2Cc2ccc(F)cc2)cc1)c1ccccc1` (stereo not given) here?
A: The Potency was inconclusive: 5.62 µM [inhibitor, partial curve].

Reference: PubChem BioAssay AID2100 (National Center for Advancing Translational Sciences (NCATS), 2009)
